# Reference: article PMC5836133
# The list shows a part of the results. At the low end of the ranking the order means little.
# Tested on: T1, GST-NbGlk1(82-244)
# T1 sequence: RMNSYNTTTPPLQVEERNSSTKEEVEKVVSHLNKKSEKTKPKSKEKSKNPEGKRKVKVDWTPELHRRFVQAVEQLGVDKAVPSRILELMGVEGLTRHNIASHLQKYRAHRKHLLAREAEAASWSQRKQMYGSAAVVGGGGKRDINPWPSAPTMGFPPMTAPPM
# Test: protein-binding microarray;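 further: rank-based score ranging −0.5 to +0.5 with E above 0.45 taken as significant binding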
# Settings: NbGlk1 is a Golden2-like transcription factor of Nicotiana benthamiana; high values mean tight binding; most listed sequences are background and not binding sites; double strand, one strand shown
row,Sequence,binding signal
1,AATAGGAG,-0.0605 E-score
2,AAACAGAA,0.0793 E-score
3,AAGAAAGG,-0.109 E-score
4,AAGCCTAC,-0.139 E-score
5,AGCATAAC,-0.107 E-score
6,AAGCTAAC,-0.32 E-score
7,ACTAAAAG,0.0652 E-score
8,AAGAAGCG,-0.068 E-score
9,CAACAACG,-0.00126 E-score
10,AAAAAACG,0.0946 E-score
11,ATAGATTA,0.339 E-score
12,AGCACACA,-0.127 E-score
13,ACGCTGAA,0.00381 E-score
14,ATCAACAG,0.104 E-score
15,AACTGCTT,-0.00326 E-score
16,ACGCGAGT,-0.192 E-score
17,ACCCTAGG,0.0265 E-score
18,CACTGCAA,0.121 E-score
19,AATCCAAA,0.413 E-score
20,AACATGCT,-0.232 E-score
21,ACTGTGGA,-0.141 E-score
22,ATTGTTCC,0.122 E-score

row,Sequence,binding signal
1,CACTCGCC,-0.27 E-score
2,AGGTCCCA,-0.257 E-score
3,CAAACAAG,0.0777 E-score
4,ACGAAAAA,0.173 E-score
5,AACTTGAG,-0.0443 E-score
6,AATAGCAA,0.171 E-score
7,ACCTGTAC,-0.133 E-score
8,AGACTTAG,-0.156 E-score
9,AGGGTGGG,-0.118 E-score
10,ATTGATGC,-0.0268 E-score
11,AATGATTC,0.22 E-score
12,ACAGGATC,0.294 E-score
13,ACCGAAAG,-0.0579 E-score
14,ATCACAGG,0.0355 E-score
15,CACGAACA,-0.155 E-score
16,AACGCGAT,0.341 E-score
17,AGTGCACT,0.0166 E-score
18,CAAGCCTG,-0.192 E-score
19,ATGGCATG,-0.15 E-score
20,AATAACCC,-0.0131 E-score
21,ATATTCCA,0.326 E-score
22,CAACTGGC,-0.19 E-score

row,Sequence,binding signal
1,CAAGACTG,-0.0608 E-score
2,AGCAGGTC,-0.268 E-score
3,ACGACTGA,-0.0474 E-score
4,CACGGCCC,-0.214 E-score
5,AAGCGCTG,-0.203 E-score
6,ATTAATAC,0.124 E-score
7,AATAAGCA,0.0311 E-score
8,ATGATAAC,0.00912 E-score
9,AAGGAAAG,-0.312 E-score
10,CACGCCGG,-0.196 E-score
11,ACAGCCGA,-0.0829 E-score
12,AGATGATC,0.115 E-score
13,ATTCATTC,0.0982 E-score
14,AGGAGTAA,-0.0375 E-score
15,ATTGCGAC,0.346 E-score
16,AAGTACCC,-0.182 E-score
17,ATGAATAC,0.0592 E-score
18,AGCACCGC,-0.137 E-score
19,AACAGCCT,-0.237 E-score
20,AGCCAATC,0.0323 E-score
21,ATTTTTTG,0.315 E-score
22,CACGTAGC,-0.173 E-score

row,Sequence,binding signal
1,AGGTTTGG,-0.106 E-score
2,ACAGGTTC,-0.127 E-score
3,ATTAAGTG,0.101 E-score
4,ATAGATAA,0.102 E-score
5,ATATACGG,0.0502 E-score
6,ATCTCACA,0.289 E-score
7,CAGACCCA,-0.243 E-score
8,AGAATATG,0.253 E-score
9,AGTCAGGC,-0.149 E-score
10,AGTTGGTG,-0.259 E-score
11,AAGCGCGT,-0.07 E-score
12,ACTCGCTA,-0.000319 E-score
13,AAGTCGGA,-0.157 E-score
14,AAGAGTAG,-0.0173 E-score
15,ATTGCAGA,0.253 E-score
16,ATCTAGGC,0.0826 E-score
17,ATGCGGGC,-0.163 E-score
18,AGACGCAA,0.0374 E-score
19,AAGTCTGG,-0.194 E-score
20,AGGTCGTC,-0.304 E-score
21,AATTGGCA,-0.113 E-score
22,AGCGGCCG,-0.22 E-score

row,Sequence,binding signal
1,CAGATCCA,0.23 E-score
2,ATCATAAG,0.147 E-score
3,ACTGACTC,-0.233 E-score
4,ATGTCTTG,0.0564 E-score
5,AAATAGAG,0.039 E-score
6,AAACCGGA,0.0925 E-score
7,ATTCAGTG,0.105 E-score
8,AAGCACAT,-0.0306 E-score
9,ACCGGATA,0.262 E-score
10,CAGAGTCC,-0.0643 E-score
11,AAGACAAC,-0.225 E-score
12,ACCTTAGG,-0.0467 E-score
13,ATCCGGAG,0.233 E-score
14,ATCCTTCA,0.192 E-score
15,AGAAGTGG,-0.197 E-score
16,ACAGTCAT,-0.0447 E-score
17,ACTATCCT,-0.00837 E-score
18,AATCAGCT,0.192 E-score
19,AGCACGCC,-0.26 E-score
20,ACTACCCA,-0.138 E-score
21,AGGAGGGG,-0.225 E-score
